Our source for the binding values is article PMC9163791.

Protein sequences, listed by entry. Tags and fused reporters are not part of them. Lines headed by an entry give the natural chain unless they say otherwise; changes in a name come on top. Chains listed by the source or under a name are the forms on record and can include a tag or linker.
UniProt Q9HCE7: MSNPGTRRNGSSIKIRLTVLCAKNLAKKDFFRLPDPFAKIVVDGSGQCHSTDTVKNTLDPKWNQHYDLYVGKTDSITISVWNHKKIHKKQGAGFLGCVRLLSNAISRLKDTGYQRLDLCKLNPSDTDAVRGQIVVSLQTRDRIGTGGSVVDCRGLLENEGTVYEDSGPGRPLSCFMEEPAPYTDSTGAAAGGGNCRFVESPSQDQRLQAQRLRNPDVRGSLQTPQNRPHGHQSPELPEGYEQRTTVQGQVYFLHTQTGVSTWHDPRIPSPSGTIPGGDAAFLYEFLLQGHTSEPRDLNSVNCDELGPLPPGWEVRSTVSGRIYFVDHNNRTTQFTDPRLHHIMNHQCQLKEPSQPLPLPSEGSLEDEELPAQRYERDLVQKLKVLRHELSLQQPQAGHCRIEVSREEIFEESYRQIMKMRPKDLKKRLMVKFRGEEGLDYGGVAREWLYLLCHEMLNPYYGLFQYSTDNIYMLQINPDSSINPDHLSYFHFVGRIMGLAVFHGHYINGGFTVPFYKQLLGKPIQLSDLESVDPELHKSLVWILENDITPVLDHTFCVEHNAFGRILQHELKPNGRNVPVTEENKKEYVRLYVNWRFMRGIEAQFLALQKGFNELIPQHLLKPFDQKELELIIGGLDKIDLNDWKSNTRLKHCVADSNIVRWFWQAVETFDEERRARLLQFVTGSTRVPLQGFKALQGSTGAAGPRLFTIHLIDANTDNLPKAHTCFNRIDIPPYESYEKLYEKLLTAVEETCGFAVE
FLAG/Smurf1-WT (Q9HCE7, form named): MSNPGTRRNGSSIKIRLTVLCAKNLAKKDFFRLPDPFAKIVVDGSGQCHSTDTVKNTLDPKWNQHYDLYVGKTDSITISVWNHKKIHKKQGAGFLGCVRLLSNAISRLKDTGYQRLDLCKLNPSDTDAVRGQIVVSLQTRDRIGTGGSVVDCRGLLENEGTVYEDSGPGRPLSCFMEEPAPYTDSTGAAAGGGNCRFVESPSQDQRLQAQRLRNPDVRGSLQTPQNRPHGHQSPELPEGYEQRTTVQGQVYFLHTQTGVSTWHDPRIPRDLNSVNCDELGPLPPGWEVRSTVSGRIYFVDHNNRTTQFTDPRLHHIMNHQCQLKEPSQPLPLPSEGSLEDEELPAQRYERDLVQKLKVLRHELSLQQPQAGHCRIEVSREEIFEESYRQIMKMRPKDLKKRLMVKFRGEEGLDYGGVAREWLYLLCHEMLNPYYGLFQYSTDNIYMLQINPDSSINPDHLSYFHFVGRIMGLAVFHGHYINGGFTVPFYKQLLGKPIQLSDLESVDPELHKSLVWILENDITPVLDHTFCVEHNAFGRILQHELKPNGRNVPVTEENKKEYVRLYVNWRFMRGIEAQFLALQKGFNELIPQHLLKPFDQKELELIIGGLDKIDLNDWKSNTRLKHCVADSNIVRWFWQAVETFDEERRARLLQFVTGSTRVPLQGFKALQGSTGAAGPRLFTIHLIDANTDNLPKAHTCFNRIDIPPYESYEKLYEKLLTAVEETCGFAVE
FLAG-tagged Smurf1-C699A (Q9HCE7, form named): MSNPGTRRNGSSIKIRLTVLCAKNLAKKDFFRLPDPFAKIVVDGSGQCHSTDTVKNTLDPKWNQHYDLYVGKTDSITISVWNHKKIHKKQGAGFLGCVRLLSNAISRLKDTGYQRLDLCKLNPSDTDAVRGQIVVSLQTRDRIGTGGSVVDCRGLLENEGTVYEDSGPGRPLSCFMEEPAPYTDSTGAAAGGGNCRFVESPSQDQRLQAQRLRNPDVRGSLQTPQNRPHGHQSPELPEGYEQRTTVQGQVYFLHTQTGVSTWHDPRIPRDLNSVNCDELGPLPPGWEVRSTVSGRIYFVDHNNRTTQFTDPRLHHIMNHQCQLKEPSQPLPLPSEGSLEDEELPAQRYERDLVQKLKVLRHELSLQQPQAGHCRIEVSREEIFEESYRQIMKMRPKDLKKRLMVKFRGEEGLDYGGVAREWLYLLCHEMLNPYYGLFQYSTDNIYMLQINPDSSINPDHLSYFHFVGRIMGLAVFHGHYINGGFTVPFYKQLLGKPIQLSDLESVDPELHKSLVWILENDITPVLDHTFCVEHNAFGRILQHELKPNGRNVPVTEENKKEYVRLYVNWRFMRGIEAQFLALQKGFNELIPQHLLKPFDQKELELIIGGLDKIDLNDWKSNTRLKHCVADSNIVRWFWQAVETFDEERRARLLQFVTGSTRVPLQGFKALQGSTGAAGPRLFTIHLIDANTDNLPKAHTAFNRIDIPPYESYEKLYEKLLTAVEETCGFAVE
FLAG/Smurf1-T223D (Q9HCE7, form named): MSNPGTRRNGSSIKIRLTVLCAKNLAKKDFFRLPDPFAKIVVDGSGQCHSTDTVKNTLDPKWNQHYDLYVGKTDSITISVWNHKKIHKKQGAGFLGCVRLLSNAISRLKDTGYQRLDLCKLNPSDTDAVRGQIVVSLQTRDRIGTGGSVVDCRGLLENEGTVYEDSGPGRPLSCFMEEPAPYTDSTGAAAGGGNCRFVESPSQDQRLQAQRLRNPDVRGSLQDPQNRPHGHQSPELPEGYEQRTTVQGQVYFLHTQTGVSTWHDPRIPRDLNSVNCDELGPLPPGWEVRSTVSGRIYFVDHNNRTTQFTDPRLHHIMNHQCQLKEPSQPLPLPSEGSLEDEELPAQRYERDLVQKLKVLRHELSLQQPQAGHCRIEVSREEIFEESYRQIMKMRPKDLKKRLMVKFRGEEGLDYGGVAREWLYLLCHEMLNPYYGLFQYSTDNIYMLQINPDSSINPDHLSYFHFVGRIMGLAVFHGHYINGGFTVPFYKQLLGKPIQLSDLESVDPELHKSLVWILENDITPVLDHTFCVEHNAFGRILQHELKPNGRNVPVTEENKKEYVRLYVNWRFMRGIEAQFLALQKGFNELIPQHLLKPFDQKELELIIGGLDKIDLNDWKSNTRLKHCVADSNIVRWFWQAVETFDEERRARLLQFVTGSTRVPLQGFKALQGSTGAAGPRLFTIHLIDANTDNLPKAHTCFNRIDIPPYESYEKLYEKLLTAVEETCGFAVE
UniProt Q9HAU4: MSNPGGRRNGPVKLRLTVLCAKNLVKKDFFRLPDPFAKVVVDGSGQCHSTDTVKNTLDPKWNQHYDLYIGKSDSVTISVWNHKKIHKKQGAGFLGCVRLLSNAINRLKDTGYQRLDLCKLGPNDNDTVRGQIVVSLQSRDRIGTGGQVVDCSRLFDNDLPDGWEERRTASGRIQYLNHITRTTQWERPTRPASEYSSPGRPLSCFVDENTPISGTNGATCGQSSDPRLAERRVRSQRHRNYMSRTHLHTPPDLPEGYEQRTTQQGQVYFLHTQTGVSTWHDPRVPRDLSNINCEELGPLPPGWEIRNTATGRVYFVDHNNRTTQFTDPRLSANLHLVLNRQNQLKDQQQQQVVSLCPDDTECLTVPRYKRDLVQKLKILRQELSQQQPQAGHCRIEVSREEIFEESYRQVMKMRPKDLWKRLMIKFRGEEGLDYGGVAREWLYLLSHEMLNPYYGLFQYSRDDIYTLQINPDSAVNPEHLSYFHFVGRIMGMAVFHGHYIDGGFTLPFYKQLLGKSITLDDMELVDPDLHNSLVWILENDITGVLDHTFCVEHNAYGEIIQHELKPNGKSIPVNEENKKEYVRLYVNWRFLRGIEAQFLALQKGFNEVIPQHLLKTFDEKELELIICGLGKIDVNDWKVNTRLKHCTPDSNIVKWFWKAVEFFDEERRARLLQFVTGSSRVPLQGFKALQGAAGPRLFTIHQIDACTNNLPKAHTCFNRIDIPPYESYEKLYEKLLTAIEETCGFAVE
UniProt P28482: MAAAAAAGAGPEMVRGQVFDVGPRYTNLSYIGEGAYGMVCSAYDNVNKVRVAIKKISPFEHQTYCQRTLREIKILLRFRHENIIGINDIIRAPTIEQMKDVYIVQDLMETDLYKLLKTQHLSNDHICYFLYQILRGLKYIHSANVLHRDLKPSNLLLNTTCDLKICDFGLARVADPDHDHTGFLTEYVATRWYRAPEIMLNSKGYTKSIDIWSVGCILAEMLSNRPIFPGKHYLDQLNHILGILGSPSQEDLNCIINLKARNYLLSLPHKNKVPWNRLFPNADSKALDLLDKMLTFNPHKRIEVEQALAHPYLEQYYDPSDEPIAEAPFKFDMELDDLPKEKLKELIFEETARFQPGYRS
UniProt P61586: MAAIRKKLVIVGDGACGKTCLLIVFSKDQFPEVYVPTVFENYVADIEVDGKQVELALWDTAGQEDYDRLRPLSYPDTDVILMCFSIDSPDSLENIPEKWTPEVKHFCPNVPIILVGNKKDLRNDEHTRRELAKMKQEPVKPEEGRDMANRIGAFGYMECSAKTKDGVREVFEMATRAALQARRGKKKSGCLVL
HA/RhoA N19 (P61586, form named): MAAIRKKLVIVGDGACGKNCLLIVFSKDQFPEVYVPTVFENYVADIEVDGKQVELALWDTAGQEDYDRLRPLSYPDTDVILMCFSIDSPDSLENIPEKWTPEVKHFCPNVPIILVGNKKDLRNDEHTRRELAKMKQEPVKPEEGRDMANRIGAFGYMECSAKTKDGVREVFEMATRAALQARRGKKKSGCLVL
UniProt P27361: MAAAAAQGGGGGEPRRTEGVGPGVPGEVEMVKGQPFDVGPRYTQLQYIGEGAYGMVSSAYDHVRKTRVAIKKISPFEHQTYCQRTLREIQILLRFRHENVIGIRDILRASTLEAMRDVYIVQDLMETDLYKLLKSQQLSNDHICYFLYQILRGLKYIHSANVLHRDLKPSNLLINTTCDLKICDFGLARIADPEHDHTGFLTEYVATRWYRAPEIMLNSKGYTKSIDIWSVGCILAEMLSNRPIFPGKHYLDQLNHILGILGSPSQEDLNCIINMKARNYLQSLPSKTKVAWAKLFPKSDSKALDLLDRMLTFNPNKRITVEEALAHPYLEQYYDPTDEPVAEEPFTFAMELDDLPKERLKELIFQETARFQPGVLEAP

Experiment [1] concerns the target GST/Smurf1-WT phosphorylated by ERK2-R67S (human) (UniProt Q9HCE7). Kind of experiment: pull-down; GST/Smurf1-WT or GST/Smurf1-T223A purified from bacteria, incubated with ERK2-R67S for kinase assay, then GST pull-down with RhoA N19, immunoblot; source of RhoA N19 not told.
Experiment [2] concerns the target FLAG-tagged Smurf1-C699A (human) (UniProt Q9HCE7). Kind of experiment: co-IP; MCF-7 cells transfected with FLAG/Smurf1-C699A or FLAG/Smurf2-C716A and HA/ERK1 or HA/ERK2; anti-Flag IP and immunoblot; lysis buffer TNTE 0.5% (50 mM Tris-HCl pH 7.5, 150 mM NaCl, 1 mM EDTA, 0.5% Triton X-100). On the technique in general: In western blotting, separated proteins are transferred to a membrane and probed.

Experiment [3] has as its target FLAG-tagged Smurf2-C716A (human) (UniProt Q9HAU4). The experiment is described as above.
A further experiment has as its target Flag-tagged ERK2 (human) (UniProt P28482). Kind of experiment: co-IP; lysates of MCF-7 cells expressing Flag-ERK2; anti-FLAG IP, immunoblot for endogenous Smurf1.
In experiment [4] the target is FLAG/Smurf1-T223D (human) (UniProt Q9HCE7). Kind of experiment: co-IP; MCF-7 cells transfected with FLAG/Smurf1 (WT, T223A or T223D) and HA/RhoA N19; anti-Flag IP and immunoblot; with or without TGFβ for 2 h, with or without 5 μM U0126 pretreatment for 2 h.
The next experiment has as its target FLAG/Smurf1-WT (human) (UniProt Q9HCE7). Described as above.

These are yes or no findings as the source states them, for the method shown. Binding seen in cells or lysates may run through a third protein. Some entries that bind do so weakly or less than the wild type.

Regarding “RhoA N19 (used in the GST pull-down) (from UniProt P61586 1-193)”, the binding entry in experiment [1] was “binds”. For “HA-tagged ERK2 (from UniProt P28482 1-360)”, the binding entry in experiment [2] is recorded as “binds”; in experiment [3], “no binding”.

For the substance “endogenous Smurf1 (MCF-7) (from UniProt Q9HCE7 1-757)”, in the experiment with Flag-tagged ERK2 (human), the binding result is listed as “binds”. Take “HA-tagged ERK1 (from UniProt P27361 1-379)”: the binding result is listed as “binds” in experiment [2] and “no binding” in experiment [3]. Regarding HA/RhoA N19 (from UniProt P61586 1-193), the binding result (in experiment [4]; in the experiment with FLAG/Smurf1-WT (human)) was “binds” each time.
